pIC50: −log10 of the molar value. A lower IC50 marks a more sensitive line; where the fit passes the top or lowest dose, that dose stands as a limit. The AUC spans the tested range (256-fold, ending at the top dose) of the same fit: 1 means no effect, lower means more sensitive. For part of these data: An inferred top dose was calculated from the reported fits.
Legend:
Assay in all cases: Viability of human cancer cell lines after 72 h of drug (GDSC screen)
[1] = compound: Cc1cc(C(C)Nc2ccccc2)c2nc(N3CCOCC3)cc(=O)n2c1 [TGX221]; conditions: top dose 10 µM
Method: (§1)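 Human cancer cell lines in 384-well plates, medium with 10% serum, drug for 72 h over a 256-fold dose range (nine 2-fold or five 4-fold steps up to the top dose). Adherent lines were fixed and stained with the nucleic acid dye Syto60, suspension lines read with resazurin; signal relative to control wells, capped at 0 and 100%. One two-parameter sigmoid per drug and line, fitted in a mixed model over all curves with the slope shared within a line.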

[2] = compound: CCN(CC)CCCCNc1ncc2cc(-c3cc(OC)cc(OC)c3)c(NC(=O)NC(C)(C)C)nc2n1 [PD-173074]; conditions: top dose 2 µM; top dose inferred
Method: as §1

[3] = compound: CS(=O)(=O)CCNCc1ccc(-c2ccc3ncnc(Nc4ccc(OCc5cccc(F)c5)c(Cl)c4)c3c2)o1 [Lapatinib]; conditions: top dose 2 µM
Method: as §1

[4] = compound: CN(C)CCOc1ccc(-c2nc(-c3ccncc3)c(-c3ccc4c(c3)CC/C4=N\O)[nH]2)cc1 [SB590885]; conditions: top dose 5 µM; top dose inferred
Method: as §1

Cell Line	AUC [1]	pIC50 [1]	AUC [2]	pIC50 [2]	AUC [3]	pIC50 [3]	AUC [4]	pIC50 [4]
JAR (urogenital system, adherent)	0.919	< 5.00	0.984	< 5.70	0.985	< 5.70	0.969	< 5.30
TGW (neuroblastoma, adherent)	0.99	< 5.00	0.992	< 5.70	0.991	< 5.70	0.992	< 5.30
CA46 (Burkitt lymphoma, suspension)	0.978	< 5.00	0.975	< 5.70	0.954	< 5.70	0.979	< 5.30
SK-PN-DW (Ewing sarcoma, adherent)	0.965	< 5.00	0.964	< 5.70	0.986	< 5.70	0.961	< 5.30
HSC-39 (stomach, suspension)	0.991	< 5.00	0.251	7.56	0.987	< 5.70	0.968	< 5.30
LU-134-A (small cell lung carcinoma, suspension)	0.987	< 5.00	0.973	< 5.70	0.963	< 5.70	0.986	< 5.30
EJM (lymphoid neoplasm, semi-adherent)	0.992	< 5.00	0.992	< 5.70	0.988	< 5.70	0.992	< 5.30
KM-H2 (Hodgkin lymphoma, suspension)	0.984	< 5.00	0.981	< 5.70	0.993	< 5.70	0.989	< 5.30
LOXIMVI (melanoma, semi-adherent)	0.99	< 5.00	0.988	< 5.70	0.989	< 5.70	0.826	5.59
TK (B-cell lymphoma, suspension)	0.99	< 5.00	0.99	< 5.70	0.99	< 5.70	0.99	< 5.30
KY821 (leukaemia, suspension)	0.99	< 5.00	0.967	< 5.70	0.989	< 5.70	0.989	< 5.30
GRANTA-519 (B-cell lymphoma, suspension)	0.985	< 5.00	0.991	< 5.70	0.99	< 5.70	0.991	< 5.30
EW-13 (Ewing sarcoma, suspension)	0.986	< 5.00	0.975	< 5.70	0.984	< 5.70	0.984	< 5.30
CTB-1 (B-cell lymphoma, suspension)	0.941	< 5.00	0.914	< 5.70	0.979	< 5.70	0.977	< 5.30
EW-3 (Ewing sarcoma, adherent)	0.982	< 5.00	0.983	< 5.70	0.984	< 5.70	0.979	< 5.30
NMC-G1 (glioma, adherent)	0.887	< 5.00	0.977	< 5.70	0.892	< 5.70	0.972	< 5.30
EB2 (Burkitt lymphoma, suspension)	0.961	< 5.00	0.99	< 5.70	0.983	< 5.70	0.99	< 5.30
TC-71 (Ewing sarcoma, adherent)	0.992	< 5.00	0.989	< 5.70	0.991	< 5.70	0.988	< 5.30
EC-GI-10 (oesophagus, adherent)	0.989	< 5.00	0.989	< 5.70	0.982	< 5.70	0.988	< 5.30
ALL-SIL (T-cell leukaemia, suspension)	0.985	< 5.00	0.978	< 5.70	0.989	< 5.70	0.987	< 5.30
ML-2 (acute myeloid leukaemia, suspension)	0.957	< 5.00	0.989	< 5.70	0.989	< 5.70	0.984	< 5.30
COLO-684 (endometrium, suspension)	0.978	< 5.00	0.984	< 5.70	0.981	< 5.70	0.985	< 5.30
ATN-1 (T-cell lymphoblastic leukaemia, suspension)	0.981	< 5.00	0.845	5.88	0.984	< 5.70	0.784	5.71
KARPAS-422 (B-cell lymphoma, suspension)	0.8	5.32	0.972	< 5.70	0.988	< 5.70	0.978	< 5.30
WSU-DLCL2 (B-cell lymphoma, suspension)	0.993	< 5.00	0.992	< 5.70	0.993	< 5.70	0.993	< 5.30
KGN (ovary, adherent)	0.853	< 5.00	0.968	< 5.70	0.969	< 5.70	0.981	< 5.30
TE-9 (oesophagus, adherent)	0.87	5.00	0.956	< 5.70	0.746	6.18	0.919	< 5.30
SU-DHL-6 (B-cell lymphoma, suspension)	0.587	5.99	0.994	< 5.70	0.988	< 5.70	0.995	< 5.30
SK-LMS-1 (soft tissue, adherent)	0.932	< 5.00	0.987	< 5.70	0.937	< 5.70	0.987	< 5.30
D-263MG (glioma, adherent)	0.879	< 5.00	0.705	6.27	0.97	< 5.70	0.983	< 5.30

Source: the supplement of paper PMC4967469
